Out of some 44,000 compounds screened, about 340 (0.77%) were called active. Another 5% or so got no clear call; they are omitted. Calls come from the whole dose curve; as a rule, active = well fitted inhibition curve with a large enough effect; inconclusive = small, poorly fitted or top-dose-only effect; inactive = flat fitted curve, though single readings scatter. This is one part of the list.
experiment: Acumen qHTS Assay for Inhibitors of the mTORC1 Signaling Pathway in MEF (Tsc2-/-, p53-/-) Cells: Sytravon; details: phospho-rpS6 immunofluorescence/PI, 24 h; series mostly up to 38.3 µM; activity change, negative = inhibition: at the top concentration;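 note: plate controls were DMSO for no effect and rapamycin for full effect; nearly all actives have a fitted effect of over 50% in size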
Procedure, shortened: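 Tsc2-/-, p53-/- MEFs (empty-vector stable line) in DMEM + 10% FBS were treated with compounds 24 h at 37 degree Celsius, fixed, and immunostained for phospho-rpS6 (Alexa-488) with propidium iodide counterstain. Laser-scanning cytometry gave % positive cells, normalized against 7.5 nM rapamycin and DMSO.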

Activity change, negative = inhibition, inactive:
COCCCNC(=O)CN1C(=O)c2c(c3ccccc3n2C)C1c1ccc(OC)cc1 (stereo not given) -7.17%
Cc1ccc(NC(=O)c2cc(-c3ccc4c(c3)OCO4)on2)cc1 -2.8%
CCOc1ccc(CNC(=O)COc2cc(=O)n(C)c3ccccc23)cc1 1.16%
CC1=C(C(=O)Nc2ccc(C)cc2)C(c2ccccc2Cl)n2nnnc2N1 (stereo not given) -16.1%
COc1cc(NC(=O)c2ccc(C(=O)Nc3cc(OC)c(Cl)cc3OC)cc2)c(OC)cc1Cl -7.68%
CCCN1CCN(CCCNC(=O)Cn2nc(C)n3c(cc4cc(F)ccc43)c2=O)CC1 -3.66%
Cc1cccc2c1-c1sc(C(=O)NCc3ccccc3Cl)cc1CO2 0.31%
COc1cccc(NC(=O)c2cc(CN3CCOCC3)on2)c1 0%
CCC(=O)N1CCc2cc(Br)cc(S(=O)(=O)CCC(=O)NCc3ccccc3)c21 -6.78%
COc1ccccc1CNC(=O)c1c2c(nc3ccccc13)C(=O)N(C1CCCCC1)C2 -6.78%
Cc1nn2c(=O)cc(COC(=O)c3ccc(C(C)(C)C)cc3)nc2s1 7.79%
CSc1cccc(NC(=O)CN(C)S(=O)(=O)c2ccc3c(c2)n(C)c(=O)c(=O)n3C)c1 -0.422%
O=c1ccc2cc(S(=O)(=O)N3CCCC3)ccc2[nH]1 -1.52%
COc1ccc(NC(=O)c2c(C)oc3ccc(O)c(CN4CCN(C)CC4)c23)cc1Cl -2.49%
O=C(Nc1c(C(=O)N2CCN(c3ccc(F)cc3)CC2)oc2ccccc12)c1ccco1 -5.62%
COc1ccc(CCNC(=O)c2ccc(CS(=O)(=O)c3ccc(C)cc3)o2)cc1OC -1.43%
Cc1ccc(-c2nnc(Nc3ccc(C(N)=O)cc3)c3ccccc23)cc1S(=O)(=O)N1CCCCC1 5.03%
COc1cccc(N2CCN(S(=O)(=O)c3ccc(-c4cnc(C5CC5)o4)cc3)CC2)c1 0%
CCOC(=O)C1CCCN(CCC(=O)Nc2ccc(OC)cc2OC)C1 (stereo not given) -0.607%
O=C(CSc1nc2ccccc2n1Cc1ccc(F)c(Cl)c1)N1CCN(c2ccc(F)cc2)CC1 -6.51%
Cc1cccc(-n2ccnc2SCC(=O)Nc2ccccc2C(F)(F)F)c1 -2.8%
COc1ccc(CNC(=O)CCc2c(C)nc3c(c2C)c(=O)n(C)c(=O)n3C)cc1 2.95%
CCn1cc(C(=O)NCCc2ccccc2)c(=O)c2cc(S(=O)(=O)N3CCOCC3)ccc21 -0.142%
CCCc1nn2c(=O)cc(COC(=O)c3ccc(NC(=O)c4cccs4)cc3)nc2s1 5.59%
CCc1ccc(NC(=O)CSC2=Nc3ccccc3C3=NC(CCC(=O)NCc4cccs4)C(=O)N23)cc1 (stereo not given) -7.59%
COc1cc(CN2CCc3nc(Nc4ccc5c(c4)OCCO5)ncc3C2)cc(OC)c1OC 0%
CCC(=O)N1CCc2cc(S(=O)(=O)NC(C(=O)NCc3ccc(OC)cc3)C(C)C)ccc21 (stereo not given) 2.45%
Cc1ccc(Cn2c(C)c(CNC3CCCCC3)c(C(=O)O)c2C)cc1 0.859%
COc1ccc(OC)c(CCNC(=O)CCCc2nnc3n(C)c(=O)c4sccc4n23)c1 5.14%
COc1cccc(N2C(=O)CSC23C(=O)N(CC(=O)Nc2cc(C)ccc2C)c2ccccc23)c1 (stereo not given) -3.92%
CCOC(=O)c1cc2c(=O)n3ccccc3nc2n(Cc2ccco2)c1=NC(=O)c1cc(C)cc(C)c1 -2.54%
COC(=O)c1ccc(NC(=O)c2nn(C)c3c2CS(=O)(=O)c2ccccc2-3)cc1 7.29%
CCc1ccccc1NC(=O)CC(c1ccc(F)cc1)N1Cc2ccccc2C1=O (stereo not given) -1.43%
CC1CCN(S(=O)(=O)c2ccc3nc(-c4cccnc4)cc(C(=O)NCCCOC(C)C)c3c2)CC1 -0.374%
COc1ccc2[nH]cc(CCNC(=O)Nc3ccccc3C)c2c1 -0.922%
Cc1ccc(Cl)cc1NC(=O)c1oc2ccc(S(=O)(=O)N3CCC4(CC3)OCCO4)cc2c1C 7.56%
Cc1ccc2sc(N3CCN(C(=O)C4COc5ccccc5O4)CC3)nc2c1C (stereo not given) -2.06%
Cc1cc(C)c(NC(=O)c2sc3nc(C)cc(C)c3c2N)c(C)c1 -22.4%
COc1ccc(C)cc1NC(=O)CN1CCN(CC(=O)Nc2ccccc2F)CC1 3.4%
O=C1C2=C(Nc3ccccc3SC2c2c(F)cccc2Cl)c2ccccc21 (stereo not given) -8.09%
COc1ccc(NC(=O)Nc2cn(CC(C)C)c(=O)c3ccccc23)c(OC)c1 0.0621%
O=C(NCCc1ccc(F)cc1)C(=O)NCC(c1cccs1)S(=O)(=O)c1cccs1 (stereo not given) -10.8%
COc1ccc(-c2cc(-c3ccccc3)nc3c2COc2ccc(Cl)cc2-3)cc1 -2.51%
Cc1oc2ncn(C)c(=O)c2c1C(=O)N(C)c1ccccc1F 1.27%
COc1ccc(NC(=O)CSC2=Nc3ccccc3C3=NC(CCC(=O)NCCc4ccccc4)C(=O)N23)cc1 (stereo not given) 0.628%
CC(C)(C)OC(=O)N1CCC(c2c(C(=O)N3CCN(C4CCCCC4)CC3)cnn2-c2cccc(Cl)c2)CC1 -13.2%
COC(=O)c1ccc(NS(=O)(=O)c2ccc3[nH]c4c(c3c2)CCCCC4)cc1 -5.15%
CCOC(=O)N1CCC(NC(=O)c2cnn(-c3cccc(C)c3)c2-n2cccc2)CC1 -7.68%
CC(=O)N1CCCc2cc(S(=O)(=O)N3CCC(C(=O)NC4CCCCC4)CC3)ccc21 -0.326%
Cc1cccc(-n2cc(-c3ccccc3)nc2SCC(=O)Nc2ccccc2Cl)c1 -2.91%
Cc1ccc(C)c(NC(=O)C(C)N(c2ccccc2)S(C)(=O)=O)c1 (stereo not given) 2.62%
Cc1oc2ncn(CC(C)C)c(=O)c2c1C(=O)Nc1ccc(Cl)cn1 4.76%
Cc1ccc(C)c(S(=O)(=O)NCC(c2ccc(N(C)C)cc2)N2CCOCC2)c1 (stereo not given) 11.9%
Cc1cccc(OCCn2nnc3sc4c(c3c2=O)CCCC4)c1 4.55%
CC(C)c1ccc(NS(=O)(=O)c2ccc3[nH]cc(C(=O)NC4CCCCC4)c(=O)c3c2)cc1 -0.19%
CCOc1ccc(CNCCNC(=O)c2nonc2N)cc1 5.51%
COc1ccc(-n2c(-c3ccc(Cl)cc3)cc3c2CC(C)(C)CC3=O)c(OC)c1 -17.4%
CCOC(=O)c1sc(NC(=O)c2nc(SC)ncc2Cl)c(C(=O)OCC)c1C 5.18%
Cc1cccc(C)c1NC(=O)c1ccc2nc(CCc3ccccc3)oc2c1 5.22%
Cc1cccc(NC(=O)c2sc3cccc(Cl)c3c2Cl)c1 11.7%
COc1ccc(CNC(=O)Cc2c(C)c3ccc(O)cc3oc2=O)cc1 -4%
CNC(=O)c1c(NC(=O)c2cc(=O)c3ccccc3o2)sc2c1CCC2 5.47%
COc1ccc(-c2nc3ccccc3s2)cc1NC(=O)c1ccccc1OC -10.4%
COc1cccc(-c2cc(C(F)(F)F)nc(NCc3ccc(F)cc3)n2)c1 7.88%
Cn1c(=O)c2sccc2n2c(CCCC(=O)Nc3ccc(F)c(F)c3)nnc12 -2.2%
COc1cccc(-c2nc(S(=O)(=O)c3ccccc3)c(NCc3ccccc3)o2)c1 -11.6%
COc1ccc(CCNC(=O)c2ccc3c(c2)nc2n3CCOC2)cc1OC -9.74%
Cc1c(C(=O)Nc2ccc(F)cc2F)nnn1-c1ccccc1Br -1.07%
COc1ccc(C(=O)/C=C/c2cn(CC(O)CN(CC(C)C)CC(C)C)c3ccccc23)cc1OC (stereo not given) -11.8%
CC(C)c1ccc(NC(=O)CCS(=O)(=O)c2ccc(Br)s2)cc1 -15.7%
CC1=C(C(=O)Nc2ccccc2)C(c2ccncc2)n2nc(SCc3ccccc3)nc2N1 (stereo not given) -4.86%
CCc1nn(CC(=O)NCc2cccc(OC)c2OC)c(=O)c2cc3occc3n12 -1.02%
Cc1ccc(C(=O)COC(=O)C(Cc2c[nH]c3ccccc23)NC(=O)c2ccc(Br)cc2)cc1 (stereo not given) -2.9%
Cc1nnc(N2CCC(C(=O)NCc3ccc(N(C)C)cc3)CC2)c2nn(-c3ccccc3)c(C)c12 0.518%
COc1ccc(NC(=O)C2=C(C)Nc3nc(SC)nn3C2c2cc(OC)ccc2OC)cc1 (stereo not given) 3.15%
O=C(NCCCO)C(=O)Nc1c2c(nn1-c1ccc(F)cc1)CSC2 -2.34%
O=C(CSc1nc2ccccc2n1Cc1cccc(Cl)c1)N1CCN(c2ccc(F)cc2)CC1 -8.63%
c1ccc(N2CCN(c3ncnc4c3nc3n4CCCC3)CC2)cc1 1.44%
O=C(Nc1ccc(Cl)cc1)c1ccc2c(c1)N(Cc1ccccc1)C(=O)c1ccccc1S2(=O)=O 2.16%
Cc1cc2oc(C(=O)Nc3cccc(-c4nc5ccccc5o4)c3)c(C)c2cc1Cl 0%
COc1ccc(OC)c(CNC(=O)Cn2nc(C)c3c(C)n(-c4ccccc4)nc3c2=O)c1 -0.269%
CN(CC(=O)Nc1cccc(C#N)c1)S(=O)(=O)c1cc2c(cc1Cl)NC(=O)CO2 -2.33%
CCOc1ccccc1CNC(=O)CC(C)n1ccc(C)n1 (stereo not given) 1.52%
COc1ccc(NC(=O)Cn2c(=O)n(Cc3ccco3)c(=O)c3sc4ccccc4c32)cc1Cl -7.53%
Cc1ccc(N2CCn3c2nc2c3c(=O)n(Cc3cccc(Cl)c3)c(=O)n2C)cc1C 6.41%
CC(C)c1ccc(NC(=O)CN2C(=O)C3(SCC(=O)N3c3ccc(F)cc3)c3ccccc32)cc1 (stereo not given) -9.35%
O=C(Nc1ccc(Cl)cc1)c1ccc2c(c1)N(Cc1ccccc1)CCS2 -7.68%
CCCC12CN3CC(CCC)(CN(C1)C3c1c[nH]c3ccc(OC)cc13)C2=O (stereo not given) 4.71%
CCN(C(=O)CSc1nc2ccccc2nc1Cc1ccccc1OC)c1ccccc1 8.24%
O=C(CN1C(=O)CCSc2ccc(S(=O)(=O)N3CCCC3)cc21)Nc1ccccc1Cl 0.155%
CCSC1=NC2(CCN(C(=O)NC3CCCCC3)CC2)N=C1c1ccc(OC)cc1 -1.6%
Cc1nc(CC(=O)Nc2ccc(C(N)=O)cc2)cs1 -0.177%
CC(C(=O)NCc1ccccc1)n1ccc2cc(S(=O)(=O)N3CCCC3)ccc21 (stereo not given) -8.57%
Cc1ccc(C(=O)CC2(O)C(=O)N(CCc3ccccc3)c3ccc(Br)cc32)cc1 (stereo not given) -4.49%
CC(=O)Nc1ccc(S(=O)(=O)NC2(C(F)(F)F)C(=O)Nc3c2c(=O)[nH]c(=O)n3-c2ccc(C)cc2)cc1 (stereo not given) 0.433%

Source: PubChem BioAssay AID493208 (National Center for Advancing Translational Sciences (NCATS), 2011)
